Test results: PubChem BioAssay AID2675 (National Center for Advancing Translational Sciences (NCATS), 2010)
Screen size: about 280,000 compounds; about 100 (0.036%) were called active. Inconclusive results, whose numbers are uncertain, are shown with a selection of clear calls. The call rests on the fitted dose curve; in most records, active means well fitted inhibition curve with a large enough effect in the signal ratio, with a control signal flat (not every such curve was filed as active); inconclusive means small, poorly fitted or top-dose-only effect, or effect the other way, or a change in a side signal; inactive means no such curve, though single readings can be large or run the other way; the % refers to the signal ratio. Potencies beside an inconclusive call are fits to weak or partial responses and may not hold up. A note “side channel” means that the fit belongs to a control or component signal, not to the main read-out.

The molecules below were run against Muscleblind-like protein 1 (Homo sapiens) (UniProt Q9NR56) (assay: qHTS Assay for Inhibitors of MBNL1-poly(CUG) RNA binding). Conditions: TR-FRET MBNL1-His/biotin-(CUG)12 binding, 665/545 ratio; series mostly up to 57.5 µM.
How it was run: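 His-tagged MBNL1 binding to biotinylated (CUG)12 RNA was measured by TR-FRET using terbium anti-His antibody (0.055 ng/ul final) and streptavidin-XL665 (5 nM final). Compounds were titrated 92 nM to 58 uM; 60 min at room temperature.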
Potency means the concentration at half of the fitted maximal effect; tags describe the fitted curve by direction and shape or compound fluorescence and quenching.

UniProt Q9NR56, sequence (Q9NR56 whole entry, looked up): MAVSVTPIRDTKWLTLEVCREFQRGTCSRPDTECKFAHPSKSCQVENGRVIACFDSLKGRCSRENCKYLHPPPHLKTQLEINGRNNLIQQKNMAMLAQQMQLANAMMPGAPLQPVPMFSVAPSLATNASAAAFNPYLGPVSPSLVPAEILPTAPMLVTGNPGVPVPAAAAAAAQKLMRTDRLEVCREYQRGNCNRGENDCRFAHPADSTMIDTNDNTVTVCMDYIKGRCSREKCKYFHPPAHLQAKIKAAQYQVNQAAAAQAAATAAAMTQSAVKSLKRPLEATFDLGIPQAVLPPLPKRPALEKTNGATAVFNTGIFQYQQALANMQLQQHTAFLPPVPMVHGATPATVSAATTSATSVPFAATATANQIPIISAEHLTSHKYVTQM

Row | Structure (SMILES) | Potency
1 | O=c1[nH]c(=O)n(Cc2ccco2)c2c1C(C(F)(F)F)(C(F)(F)F)N=C(c1ccc(F)cc1)N2 | inactive
2 | COCCNS(=O)(=O)c1cc(C)c(C)cc1C | inactive
3 | COc1cc2c(cc1OC)C(SC)=NC(C)(C)C2 | inconclusive: 0.355 µM [quencher, side channel, partial curve, poor fit]
4 | Oc1ccc(Cl)cc1/C=C/c1ccc2cccc(O)c2n1 | inactive
5 | CCCCC(=Nc1ccc(N)cc1)C1=C(O)C(C(=O)OC)C(C)(C)CC1=O (stereo unspecified) | inconclusive: 15.8 µM [quencher, side channel, partial curve]
6 | N#Cc1c(SCC(=O)Nc2ccc(C(F)(F)F)cc2)sc2c(O)cc(=O)[nH]c12 | inactive
7 | O=C(c1cc2nc(-c3ccccc3)cc(C(F)(F)F)n2n1)N1CCOCC1 | inconclusive: 17.8 µM [quencher, partial curve]
8 | O=C(O)c1ccc(/C=C/c2ccc3cccc(O)c3n2)cc1 | inconclusive: 14.1 µM [quencher, side channel, partial curve]
9 | N#CSC(c1ccccc1)c1nc2ccccc2[nH]c1=O (stereo unspecified) | inconclusive: 39.8 µM [quencher, side channel, single point]
10 | O=C(Nc1ccc2nc(-c3cccs3)[nH]c2c1)c1cccs1 | inactive
11 | CNS(=O)(=O)c1ccc2c3c(cccc13)C(=O)N2C | inconclusive: 20 µM [quencher, partial curve]
12 | O=C(Nc1nc(=S)ss1)c1ccc(Cl)cc1Cl | inactive
13 | Cc1c(NC(=O)c2ccc([N+](=O)[O-])o2)cccc1-c1nc2ncccc2o1 | inconclusive: 2.24 µM [quencher, side channel, full curve]
14 | Cc1ccc(C(=O)NCCCNc2ccccc2[N+](=O)[O-])cc1 | inconclusive: 17.8 µM [quencher, side channel, partial curve]
15 | CNC(C)C#Cc1ccc2sc3cccc(OC)c3c(=O)c2c1 (stereo unspecified) | inconclusive: 17.8 µM [quencher, side channel, partial curve]
16 | Oc1c(N=Nc2ccccn2)ccc2ccccc12 | inconclusive: 3.55 µM [quencher, side channel, full curve]
17 | CCc1ccccc1NC(=O)CCS(=O)(=O)c1ccc(Br)cc1 | inactive
18 | COc1cccc(-c2cc(C(=O)N/N=C/c3ccco3)c3ccccc3n2)c1 | inactive
19 | CCCn1c(SCC(=O)Nc2ccc(OC)cc2[N+](=O)[O-])n[nH]c1=O | inconclusive: 22.4 µM [quencher, side channel, partial curve]
20 | COc1ccc(N(C(C)C(=O)NN=C2CCCCCCC2)S(C)(=O)=O)cc1 (stereo unspecified) | inconclusive: 0.794 µM [quencher, side channel, single point]
21 | COC1(OC)N=C(N)C2(C#N)C(c3ccc4c(c3)OCO4)C12C#N (stereo unspecified) | inconclusive: 17.8 µM [quencher, side channel, single point]

Row | Structure (SMILES) | Potency
22 | CCn1c(SCC(=O)Nc2nonc2C)nnc1-c1ccco1 | inconclusive: 28.2 µM [quencher, side channel, partial curve]
23 | CC(=O)Nc1cccc(-c2cn3ccccc3n2)c1 | inactive
24 | COC(=O)CSc1nc2cc3c(cc2cc1C#N)OCO3 | inconclusive: 35.5 µM [fluorescent, side channel, single point]
25 | COc1ccc(Cl)cc1Nc1nc(C)cc(C)c1C(N)=O | inconclusive: 5.62 µM [quencher, side channel, partial curve]
26 | N#CC1=C(N)NC(=S)C(C(N)=O)C1c1ccc(Cl)cc1Cl (stereo unspecified) | inactive
27 | CCCn1cc(SCC(=O)NCc2ccc3c(c2)OCO3)c2ccccc21 | inconclusive: 8.91 µM [quencher, side channel, full curve, poor fit]
28 | COc1ccc(CC(=O)Nc2cccc(-c3ccc4nncn4n3)c2)cc1OC | inconclusive: 14.1 µM [quencher, side channel, partial curve]
29 | COc1ccc(C)cc1NC(=O)C1CCCN(S(=O)(=O)c2ccc3[nH]c(=O)ccc3c2)C1 (stereo unspecified) | inactive
30 | Nc1ccccc1Nc1ccncc1[N+](=O)[O-] | inconclusive: 12.6 µM [quencher, side channel, partial curve]
31 | O=C(NS(=O)(=O)c1ccccc1)c1ccccc1O | inconclusive: 158 µM [inhibitor, single point]
32 | CC(Oc1ccc2c(-c3ccccc3)cc(=O)oc2c1)C(=O)NCCCN1CCOCC1 (stereo unspecified) | inconclusive: 14.1 µM [quencher, side channel, partial curve]
33 | CCCc1nc2c(c(=O)c3ccccc3n2C)c(=O)n1-c1ccc(F)cc1 | inconclusive: 39.8 µM [fluorescent, single point]
34 | COc1ccc2c(c1OC)C(=O)OC2CC(=O)c1ccc(O)c(O)c1 (stereo unspecified) | inconclusive: 15.8 µM [quencher, side channel, single point]
35 | COc1ccc(-c2cc(C(=O)N3CCN(S(=O)(=O)c4ccccc4)CC3)[nH]n2)cc1 | inactive
36 | COc1ccc2c(c1OC)C(=O)N1N=C(c3ccccc3)CC21 (stereo unspecified) | inconclusive: 0.891 µM [quencher, side channel, full curve, poor fit]
37 | CCCC1(c2ccccc2)NC(=O)N(CCN2C(=O)c3ccccc3C2=O)C1=O (stereo unspecified) | inconclusive: 25.1 µM [quencher, side channel, single point]
38 | Cc1ccc(-n2c(SCC(=O)NCc3ccco3)nc3sc(C)c(C)c3c2=O)cc1 | inconclusive: 3.16 µM [activator, single point]
39 | NC(=S)N/N=C/c1ccc(-c2ccc([N+](=O)[O-])cc2)o1 | inconclusive: 3.98 µM [quencher, side channel, full curve]
40 | Cc1ccc(NC(=S)Nc2ccc(C(C)C)cc2)cc1S(=O)(=O)N1CCCCCC1 | inactive
41 | CCC(=O)NC(=S)NNC(=O)c1ccc([N+](=O)[O-])cc1 | inconclusive: 12.6 µM [quencher, side channel, partial curve]
